Data as given in the supplement of paper PMC4967469.
The IC50 comes from the fitted curve, where viability falls to half of the control; a fit beyond the top or the lowest dose is shown as a bound at that dose. AUC sums up the same curve from the lowest dose to the 256-fold higher top dose; the more sensitive the line, the further below 1. Where the top dose is marked as inferred, it was derived from the fitted curves, not read from the paper.

Compound: C=CC(=O)Nc1cccc(Nc2nc(NC3CCC(N(C)C)CC3)nc3c2ncn3C(C)C)c1 [WZ3105]
Test: Viability of human cancer cell lines after 72 h of drug (GDSC screen)
Details: top dose inferred
Protocol: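 Human cancer cell lines in 384-well plates, medium with 10% serum, drug for 72 h over a 256-fold dose range (nine 2-fold or five 4-fold steps up to the top dose). Adherent lines were fixed and stained with the nucleic acid dye Syto60, suspension lines read with resazurin; signal relative to control wells, capped at 0 and 100%. One two-parameter sigmoid per drug and line, fitted in a mixed model over all curves with the slope shared within a line.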

HuO-3N1 (osteosarcoma, adherent, top dose 1.28 µM)
AUC: 0.831
IC50: 1190 nM

HuP-T3 (pancreas, adherent, top dose 1.28 µM)
AUC: 0.864
IC50: > 1280 nM

HuP-T4 (pancreas, adherent, top dose 1.28 µM)
AUC: 0.573
IC50: 128 nM

IA-LM (large cell lung carcinoma, adherent, top dose 1.28 µM)
AUC: 0.788
IC50: 638 nM

IGR-1 (melanoma, adherent, top dose 1.28 µM)
AUC: 0.828
IC50: 659 nM

IGR-37 (melanoma, adherent, top dose 1.28 µM)
AUC: 0.989
IC50: > 1280 nM

IHH-4 (thyroid, semi-adherent, top dose 1.28 µM)
AUC: 0.787
IC50: 442 nM

IM-95 (stomach, adherent, top dose 1.28 µM)
AUC: 0.782
IC50: 574 nM

IMR-5 (neuroblastoma, adherent, top dose 1.28 µM)
AUC: 0.565
IC50: 116 nM

IPC-298 (melanoma, adherent, top dose 1.28 µM)
AUC: 0.855
IC50: 996 nM

IST-MEL1 (melanoma, adherent, top dose 1.28 µM)
AUC: 0.799
IC50: 754 nM

IST-MES1 (mesothelioma, adherent, top dose 1.28 µM)
AUC: 0.984
IC50: > 1280 nM

IST-SL1 (small cell lung carcinoma, semi-adherent, top dose 1.28 µM)
AUC: 0.566
IC50: 122 nM

IST-SL2 (small cell lung carcinoma, suspension, top dose 1.28 µM)
AUC: 0.791
IC50: 570 nM

J82 (bladder, adherent, top dose 1.28 µM)
AUC: 0.986
IC50: > 1280 nM

JAR (urogenital system, adherent, top dose 1.28 µM)
AUC: 0.795
IC50: 579 nM

JEG-3 (urogenital system, adherent, top dose 1.28 µM)
AUC: 0.987
IC50: > 1280 nM

JHH-1 (liver, adherent, top dose 1.28 µM)
AUC: 0.783
IC50: 591 nM

JHH-2 (liver, adherent, top dose 1.28 µM)
AUC: 0.755
IC50: 464 nM

JHH-4 (liver, adherent, top dose 1.28 µM)
AUC: 0.987
IC50: > 1280 nM

JHH-6 (liver, adherent, top dose 1.28 µM)
AUC: 0.967
IC50: > 1280 nM

JHH-7 (liver, adherent, top dose 1.28 µM)
AUC: 0.985
IC50: > 1280 nM

JHOS-2 (ovary, adherent, top dose 1.28 µM)
AUC: 0.981
IC50: > 1280 nM

JHOS-3 (ovary, adherent, top dose 1.28 µM)
AUC: 0.892
IC50: > 1280 nM

JHU-011 (head and neck, adherent, top dose 1.28 µM)
AUC: 0.724
IC50: 341 nM

JHU-022 (head and neck, adherent, top dose 1.28 µM)
AUC: 0.913
IC50: > 1280 nM

JIMT-1 (breast, adherent, top dose 1.28 µM)
AUC: 0.976
IC50: > 1280 nM

JJN-3 (haematopoietic neoplasm, suspension, top dose 1.28 µM)
AUC: 0.661
IC50: 204 nM

JM1 (B-cell lymphoma, suspension, top dose 1.28 µM)
AUC: 0.733
IC50: 328 nM

JSC-1 (B-cell lymphoma, suspension, top dose 1.28 µM)
AUC: 0.6
IC50: 150 nM

JURL-MK1 (chronic myeloid leukaemia, suspension, top dose 1.28 µM)
AUC: 0.699
IC50: 289 nM

JVM-2 (lymphoid neoplasm, suspension, top dose 1.28 µM)
AUC: 0.818
IC50: 941 nM

JVM-3 (lymphoid neoplasm, suspension, top dose 1.28 µM)
AUC: 0.907
IC50: > 1280 nM

JiyoyeP-2003 (Burkitt lymphoma, suspension, top dose 1.28 µM)
AUC: 0.738
IC50: 344 nM

K2 (melanoma, adherent, top dose 1.28 µM)
AUC: 0.88
IC50: > 1280 nM

K5 (thyroid, adherent, top dose 1.28 µM)
AUC: 0.987
IC50: > 1280 nM

K-562 (chronic myeloid leukaemia, suspension, top dose 1.28 µM)
AUC: 0.621
IC50: 170 nM

KALS-1 (glioma, adherent, top dose 1.28 µM)
AUC: 0.726
IC50: 452 nM

KARPAS-45 (lymphoblastic leukaemia, suspension, top dose 10.24 µM)
AUC: 0.188
IC50: 93.7 nM

KARPAS-231 (B-cell leukaemia, suspension, top dose 1.28 µM)
AUC: 0.491
IC50: 75.8 nM

KARPAS-299 (anaplastic large cell lymphoma, suspension, top dose 1.28 µM)
AUC: 0.723
IC50: 301 nM

KARPAS-422 (B-cell lymphoma, suspension, top dose 1.28 µM)
AUC: 0.614
IC50: 164 nM

KARPAS-620 (haematopoietic neoplasm, suspension, top dose 1.28 µM)
AUC: 0.657
IC50: 203 nM

KASUMI-1 (acute myeloid leukaemia, suspension, top dose 1.28 µM)
AUC: 0.669
IC50: 237 nM

KCL-22 (chronic myeloid leukaemia, suspension, top dose 1.28 µM)
AUC: 0.649
IC50: 192 nM

KE-37 (lymphoblastic leukaemia, suspension, top dose 10.24 µM)
AUC: 0.177
IC50: 96.2 nM

KELLY (neuroblastoma, adherent, top dose 1.28 µM)
AUC: 0.987
IC50: > 1280 nM

KG-1 (acute myeloid leukaemia, suspension, top dose 1.28 µM)
AUC: 0.97
IC50: > 1280 nM

KGN (ovary, adherent, top dose 1.28 µM)
AUC: 0.914
IC50: > 1280 nM

KINGS-1 (glioma, adherent, top dose 1.28 µM)
AUC: 0.917
IC50: > 1280 nM

KLE (endometrium, adherent, top dose 1.28 µM)
AUC: 0.871
IC50: > 1280 nM

KM12 (large intestine, adherent, top dose 10.24 µM)
AUC: 0.698
IC50: 2430 nM

KM-H2 (Hodgkin lymphoma, suspension, top dose 1.28 µM)
AUC: 0.903
IC50: 1240 nM

KMH-2 (thyroid, adherent, top dose 1.28 µM)
AUC: 0.769
IC50: 432 nM

KMOE-2 (acute myeloid leukaemia, suspension, top dose 1.28 µM)
AUC: 0.736
IC50: 344 nM

KMRC-1 (kidney, adherent, top dose 1.28 µM)
AUC: 0.983
IC50: > 1280 nM

KMRC-20 (kidney, adherent, top dose 1.28 µM)
AUC: 0.985
IC50: > 1280 nM

KMS-11 (myeloma, suspension, top dose 1.28 µM)
AUC: 0.878
IC50: 979 nM

KMS-12-BM (myeloma, suspension, top dose 1.28 µM)
AUC: 0.589
IC50: 134 nM
